Data: a collection of fitness landscapes (doi:10.1016/j.celrep.2020.107928)
The full ranking holds about 81,000 sequences; the median of “one-hybrid fitness for binding NBS DNA” is about -0.1, and the highest 2% start at about 0.36. The list shows a part of the results.

B1: Caulobacter ParB omega fusion; a variant is named by its letters at X, in order, B8GW30 (parent)
chain: MESVVVGEPGMSEGRRGLGRGLSALLGEVDAAPAQAPGEQLGGSREAPIEILQRNPDQPRRTFREEDLEDLSNSIREKGVLQPILVRPSPDTAGEYQIVAGERAWRAAQRAGLKTVPIMVRELDDLAVLEIGIIENVQRADLNVLEEALSYKVLMEKFERTQENIAQTIGKSXSHVANXMRLLXLPDEVQSYLVSGELTAXHARAIAAAADPVALAKQIIEGGLSVRETEALARKAPNLSAGKSKGGRPPRVKDTDTQALESDLSSVLGLDVSIDHRGSTGTLTITYATLEQLDDLCNRLTRGI

Variants of: B1
Assay: one-hybrid fitness for binding NBS DNA (the Noc-binding site; scaled: cognate 1, non-cognate 0); higher = stronger binding
Settings: with NBS DNA site
How it was run: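 The reporter was HIS3, with the binding site 19 bp from the promoter, in E. coli USO used for bacterial one-hybrid selection of Caulobacter ParB libraries with four specificity codons randomised. Growth was on M9 lacking histidine, with 0.1 mM IPTG and 5 mM 3-AT, for 48 hours at 37°C. Illumina sequencing covered plasmids before and after selection; three replicate libraries were pooled and variants with under 10 reads dropped. A fitness score is the log change in variant-to-wild-type read ratio, rescaled to the cognate and non-cognate references.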

Row | Variant | one-hybrid fitness for binding NBS DNA
1 | GWYW | ≤ 0.2
2 | CRPT | ≤ 0.2
3 | FFVP | ≤ 0.2
4 | TTGN | ≤ 0.2
5 | HSAM | ≤ 0.2
6 | MFLN | ≤ 0.2
7 | MHFG | ≤ 0.2
8 | PAFR | ≤ 0.2
9 | VVDL | ≤ 0.2
10 | QMWD | ≤ 0.2
11 | TMVG | ≤ 0.2
12 | RHFI | ≤ 0.2
13 | VTER | ≤ 0.2
14 | PCST | ≤ 0.2
15 | VNPR | ≤ 0.2
16 | QHQR | 0.523
17 | SLDG | ≤ 0.2
18 | MRKT | 0.332
19 | PSGL | ≤ 0.2
20 | NGLP | ≤ 0.2
21 | ICCS | ≤ 0.2
22 | EGEG | ≤ 0.2
23 | YASN | ≤ 0.2
24 | RYCH | ≤ 0.2
25 | PRKG | ≤ 0.2
26 | YTYT | ≤ 0.2

Row | Variant | one-hybrid fitness for binding NBS DNA
27 | ETQR | ≤ 0.2
28 | VRRL | ≤ 0.2
29 | PVSA | ≤ 0.2
30 | ADVY | ≤ 0.2
31 | RYYY | ≤ 0.2
32 | LCKF | ≤ 0.2
33 | GCLC | ≤ 0.2
34 | HRPT | ≤ 0.2
35 | TDPL | ≤ 0.2
36 | CRQN | ≤ 0.2
37 | RICI | ≤ 0.2
38 | ACMG | ≤ 0.2
39 | FCQG | ≤ 0.2
40 | VQPE | ≤ 0.2
41 | ILQG | ≤ 0.2
42 | LFQI | ≤ 0.2
43 | LWHE | ≤ 0.2
44 | AELI | ≤ 0.2
45 | PNMF | ≤ 0.2
46 | TRVK | ≤ 0.2
47 | SGLR | ≤ 0.2
48 | EMHG | ≤ 0.2
49 | LPRK | ≤ 0.2
50 | RRSS | 0.643
51 | QCFG | ≤ 0.2
52 | RPWE | ≤ 0.2

Row | Variant | one-hybrid fitness for binding NBS DNA
53 | YVNA | ≤ 0.2
54 | VTLK | ≤ 0.2
55 | QYEI | ≤ 0.2
56 | SMQT | ≤ 0.2
57 | WPKR | ≤ 0.2
58 | CLAL | ≤ 0.2
59 | PPSP | ≤ 0.2
60 | VHWG | ≤ 0.2
61 | STSS | ≤ 0.2
62 | SRSR | ≤ 0.2
63 | FELF | ≤ 0.2
64 | GSDR | ≤ 0.2
65 | RQSP | ≤ 0.2
66 | DSEG | ≤ 0.2
67 | HEGQ | ≤ 0.2
68 | GDRE | ≤ 0.2
69 | RETT | ≤ 0.2
70 | QQHF | ≤ 0.2
71 | STRE | ≤ 0.2
72 | SSHS | ≤ 0.2
73 | SHSE | ≤ 0.2
74 | HKGG | ≤ 0.2
75 | NNTC | ≤ 0.2
76 | PPNS | ≤ 0.2
77 | RIFI | ≤ 0.2
78 | PAPD | ≤ 0.2

Row | Variant | one-hybrid fitness for binding NBS DNA
79 | RKNF | ≤ 0.2
80 | HPPK | ≤ 0.2
81 | PLAD | ≤ 0.2
82 | SPTF | ≤ 0.2
83 | DDVV | ≤ 0.2
84 | FAHM | ≤ 0.2
85 | ETSE | ≤ 0.2
86 | ERTN | ≤ 0.2
87 | HLAR | ≤ 0.2
88 | PFGK | ≤ 0.2
89 | KHMT | ≤ 0.2
90 | WDMR | ≤ 0.2
91 | DHYT | ≤ 0.2
92 | QYPW | ≤ 0.2
93 | MMAG | ≤ 0.2
94 | FLFY | ≤ 0.2
95 | VAKD | ≤ 0.2
96 | RFES | ≤ 0.2
97 | KVIR | ≤ 0.2
98 | YLRG | ≤ 0.2
99 | DPNS | ≤ 0.2
100 | FNQD | ≤ 0.2
101 | YEWR | ≤ 0.2
102 | RSDF | ≤ 0.2
103 | TVHS | ≤ 0.2
104 | TYYV | ≤ 0.2

Row | Variant | one-hybrid fitness for binding NBS DNA
105 | EGMS | ≤ 0.2
106 | NNND | ≤ 0.2
107 | ESSL | ≤ 0.2
108 | MQTM | ≤ 0.2
109 | WRGI | ≤ 0.2
110 | QPSN | ≤ 0.2
111 | WAME | ≤ 0.2
112 | HHLR | ≤ 0.2
113 | LERT | ≤ 0.2
114 | QLGR | 0.496
115 | FSIS | ≤ 0.2
116 | MSCT | ≤ 0.2
117 | SKRS | ≤ 0.2
118 | GTHC | ≤ 0.2
119 | RVKT | 0.652
120 | YYVS | ≤ 0.2
121 | RFRK | ≤ 0.2
122 | SSDT | ≤ 0.2
123 | PAFF | ≤ 0.2
124 | YICV | ≤ 0.2
125 | QVYK | ≤ 0.2
126 | RQFH | ≤ 0.2
127 | NADI | ≤ 0.2
128 | EISH | ≤ 0.2
129 | QEGG | ≤ 0.2
130 | KYYT | ≤ 0.2

Row | Variant | one-hybrid fitness for binding NBS DNA
131 | GCLV | ≤ 0.2
132 | WVRS | ≤ 0.2
133 | GKIC | ≤ 0.2
134 | RCTQ | ≤ 0.2
135 | NEQL | ≤ 0.2
136 | IMIC | ≤ 0.2
137 | QQFC | ≤ 0.2
138 | QCIG | ≤ 0.2
139 | PCSV | ≤ 0.2
140 | DKIL | ≤ 0.2
141 | QYLD | ≤ 0.2
142 | MQPC | ≤ 0.2
143 | ITKG | ≤ 0.2
144 | CVIT | ≤ 0.2
145 | RGGD | ≤ 0.2
146 | ATLD | ≤ 0.2
147 | LRNL | ≤ 0.2
148 | LRTL | ≤ 0.2
149 | HSAL | ≤ 0.2
150 | NIGL | ≤ 0.2
151 | NFFS | ≤ 0.2
152 | KYHR | ≤ 0.2
153 | IRHC | ≤ 0.2
